Results are given in words; binding and its absence hold for the method and conditions named. For some of these results: In cells and extracts the contact can be indirect. Some results given as binding are weak or reduced against the parent protein; the word gives no strength. For some of these results: Sequences can lack the tags named with a protein.
Tests used:
[1] = target: T1, Aurora A (human (endogenous in H1299)) (UniProt O14965); assay: proximity ligation; fixed H1299 cells, Aurora A and PKM2 antibodies, cells in mitosis
T1 sequence: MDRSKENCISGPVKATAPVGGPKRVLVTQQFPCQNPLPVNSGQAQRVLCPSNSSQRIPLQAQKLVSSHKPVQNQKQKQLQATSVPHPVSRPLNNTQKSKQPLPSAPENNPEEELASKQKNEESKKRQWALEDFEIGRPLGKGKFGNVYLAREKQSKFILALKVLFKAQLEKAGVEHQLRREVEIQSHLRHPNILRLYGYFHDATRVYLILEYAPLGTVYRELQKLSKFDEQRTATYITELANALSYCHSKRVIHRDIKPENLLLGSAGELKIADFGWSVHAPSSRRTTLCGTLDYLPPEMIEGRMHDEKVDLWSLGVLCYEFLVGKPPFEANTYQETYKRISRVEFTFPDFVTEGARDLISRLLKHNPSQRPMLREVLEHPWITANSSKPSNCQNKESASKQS

The chains behind the UniProt entries cited, without tags or fusion partners. Where a name states a change or a piece, a line headed by the entry shows the natural chain unless it says otherwise.
UniProt P14618: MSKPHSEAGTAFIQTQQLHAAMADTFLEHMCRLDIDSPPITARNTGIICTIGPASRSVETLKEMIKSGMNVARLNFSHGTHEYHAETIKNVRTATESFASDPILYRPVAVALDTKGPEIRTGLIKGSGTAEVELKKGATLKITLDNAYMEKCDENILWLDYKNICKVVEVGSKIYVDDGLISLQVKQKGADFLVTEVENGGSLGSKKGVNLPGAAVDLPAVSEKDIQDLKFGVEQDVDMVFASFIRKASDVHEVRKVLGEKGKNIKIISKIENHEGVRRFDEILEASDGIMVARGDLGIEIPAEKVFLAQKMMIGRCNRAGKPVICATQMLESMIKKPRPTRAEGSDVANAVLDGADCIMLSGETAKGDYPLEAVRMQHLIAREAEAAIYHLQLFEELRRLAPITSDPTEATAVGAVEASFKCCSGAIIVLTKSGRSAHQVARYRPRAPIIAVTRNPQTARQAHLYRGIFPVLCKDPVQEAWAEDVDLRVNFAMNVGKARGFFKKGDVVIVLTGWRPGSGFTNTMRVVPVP

[2] = target: T1, Aurora A (human (endogenous in H1299)); assay: co-IP; endogenous proteins in H1299 cell extracts, precipitated with Aurora A or PKM2 antibody, immunoblot
[3] = target: T1, Aurora A (human (endogenous in H1299)); assay: proximity ligation; fixed H1299 cells, Aurora A and PKM2 antibodies, interphase cells (G1, S, G2 by DAPI and PCNA); with or without serine/glycine starvation for 24 h; PKM knock-down as control
[4] = target: T2, Flag-Aurora A (293T) (human) (UniProt O14965); assay: co-IP; 293T cells cotransfected with Flag-tagged and HA-tagged protein, lysed in 50 mM Tris-HCl pH 7.4, 250 mM NaCl, 1 mM EDTA, 50 mM NaF, 0.5% Triton X-100; anti-Flag M2 resin, immunoblot
T2 sequence: T1 sequence

[5] = target: T3, Flag-Aurora A (H1299) (human) (UniProt O14965); assay: co-IP; Flag-Aurora A and HA-PKM2 coexpressed in H1299 cells, with or without serine/glycine starvation for 24 h; extracts incubated with Flag beads, immunoblot
T3 sequence: T1 sequence

[6] = target: T4, GST-Aurora A (human) (UniProt O14965); assay: pull-down; GST-tagged protein on resin incubated with purified His-PKM2 for 2 h at 4 °C, eluted with 10 mM GSH in 50 mM Tris pH 8.0, immunoblot; both purified
T4 sequence: T1 sequence

Substance: pyruvate kinase M2 (PKM2) (from UniProt P14618 1-531)
- binding [1]: no binding (condition: cells in mitosis)
- binding [2]: binds
- binding [3]: binds

Substance: HA-PKM2 K433E mutant (from UniProt P14618 1-531)
- binding [4]: no binding

Substance: HA-PKM2 (293T) (from UniProt P14618 1-531)
- binding [4]: binds

Substance: HA-PKM2 (H1299) (from UniProt P14618 1-531)
- binding [5]: binds

Substance: His-PKM2 K433E mutant (from UniProt P14618 1-531)
- binding [6]: no binding

Source: publication PMC9637814
